Numbering of substitutions follows the chain as printed; changes in the protein carry UniProt numbers. The list shows a part of the results.
T1: RBFOX1 RRM RbFoxmut (Fox-RRM*) (Homo sapiens, UniProt Q9NWB1 109-208, R118D;E147R;N151S;E152T)
T1 sequence: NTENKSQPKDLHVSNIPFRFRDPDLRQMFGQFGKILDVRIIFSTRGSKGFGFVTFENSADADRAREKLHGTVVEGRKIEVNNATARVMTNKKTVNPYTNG

B1: CCUGAUA (DNA:RNA)
RNA: GGGAGACCGGAAUUCAGAUUGUCCCCUGAUAUUAAAUCCCGUCGUAGCCACCA
DNA 1: CAATCTGAATTCCGGTCTCCC
DNA 2: TGGTGGCTACGACGGGATT
B2: AUUUCGA (DNA:RNA)
RNA: B1 RNA with C25A, C26U, G28U, A29C, U30G
DNA 1: CAATCTGAATTCCGGTCTCCC
DNA 2: TGGTGGCTACGACGGGATT
B3: CCCAACA (DNA:RNA)
RNA: B1 RNA with U27C, G28A, U30C
DNA 1: CAATCTGAATTCCGGTCTCCC
DNA 2: TGGTGGCTACGACGGGATT
B4: UUUCGUC (DNA:RNA)
RNA: B1 RNA with C25U, C26U, G28C, A29G, A31C
DNA 1: CAATCTGAATTCCGGTCTCCC
DNA 2: TGGTGGCTACGACGGGATT
B5: GGAAGAU (DNA:RNA)
RNA: GGGAGACCGGAAUUCAGAUUGUCCGGAAGAUUUAAAUCCCGUCGUAGCCACCA
DNA 1: CAATCTGAATTCCGGTCTCCC
DNA 2: TGGTGGCTACGACGGGATT
B6: UAUACGC (DNA:RNA)
RNA: B1 RNA with C25U, C26A, G28A, A29C, U30G, A31C
DNA 1: CAATCTGAATTCCGGTCTCCC
DNA 2: TGGTGGCTACGACGGGATT
B7: AGAACCU (DNA:RNA)
RNA: B5 RNA with G25A, G29C, A30C
DNA 1: CAATCTGAATTCCGGTCTCCC
DNA 2: TGGTGGCTACGACGGGATT
B8: CCAAUAA (DNA:RNA)
RNA: B1 RNA with U27A, G28A, A29U, U30A
DNA 1: CAATCTGAATTCCGGTCTCCC
DNA 2: TGGTGGCTACGACGGGATT
B9: UAUUGAG (DNA:RNA)
RNA: B5 RNA with G25U, G26A, A27U, A28U, U31G
DNA 1: CAATCTGAATTCCGGTCTCCC
DNA 2: TGGTGGCTACGACGGGATT
B10: GAGCAUC (DNA:RNA)
RNA: B1 RNA with C25G, C26A, U27G, G28C, A31C
DNA 1: CAATCTGAATTCCGGTCTCCC
DNA 2: TGGTGGCTACGACGGGATT
B11: UAACUCA (DNA:RNA)
RNA: B1 RNA with C25U, C26A, U27A, G28C, A29U, U30C
DNA 1: CAATCTGAATTCCGGTCTCCC
DNA 2: TGGTGGCTACGACGGGATT
B12: UUUCAUA (DNA:RNA)
RNA: B1 RNA with C25U, C26U, G28C
DNA 1: CAATCTGAATTCCGGTCTCCC
DNA 2: TGGTGGCTACGACGGGATT
B13: AACAACA (DNA:RNA)
RNA: B1 RNA with C25A, C26A, U27C, G28A, U30C
DNA 1: CAATCTGAATTCCGGTCTCCC
DNA 2: TGGTGGCTACGACGGGATT
B14: ACAGACU (DNA:RNA)
RNA: B1 RNA with C25A, U27A, U30C, A31U
DNA 1: CAATCTGAATTCCGGTCTCCC
DNA 2: TGGTGGCTACGACGGGATT
B15: GCUUGAC (DNA:RNA)
RNA: B5 RNA with G26C, A27U, A28U, U31C
DNA 1: CAATCTGAATTCCGGTCTCCC
DNA 2: TGGTGGCTACGACGGGATT
B16: CACUAUC (DNA:RNA)
RNA: B1 RNA with C26A, U27C, G28U, A31C
DNA 1: CAATCTGAATTCCGGTCTCCC
DNA 2: TGGTGGCTACGACGGGATT
B17: ACCUCCC (DNA:RNA)
RNA: B1 RNA with C25A, U27C, G28U, A29C, U30C, A31C
DNA 1: CAATCTGAATTCCGGTCTCCC
DNA 2: TGGTGGCTACGACGGGATT
B18: ACUAGCA (DNA:RNA)
RNA: B1 RNA with C25A, G28A, A29G, U30C
DNA 1: CAATCTGAATTCCGGTCTCCC
DNA 2: TGGTGGCTACGACGGGATT
B19: AUUCAUC (DNA:RNA)
RNA: B1 RNA with C25A, C26U, G28C, A31C
DNA 1: CAATCTGAATTCCGGTCTCCC
DNA 2: TGGTGGCTACGACGGGATT
B20: GAUGAGU (DNA:RNA)
RNA: B1 RNA with C25G, C26A, U30G, A31U
DNA 1: CAATCTGAATTCCGGTCTCCC
DNA 2: TGGTGGCTACGACGGGATT

Biological target: T1, RBFOX1 RRM RbFoxmut (Fox-RRM*)
Assay: EMSA; HiTS-Eq, 1 nM pool, 10 min; buffer printed only for the single-RNA assays: 10 mM Tris pH 7.5, 150 mM NaCl, 3.4 mM EDTA, 0.001% NP-40, 30 C
Details: tags: His6 N-terminal (pET28a); label: 5' 32P
Method in brief: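 Purified RbFox RRM (wild type or mutant) was equilibrated for 10 min in 50 µL with 1 nM of a 5′-radiolabelled pool of RNA with 7 randomized nucleotides, its flanks annealed to DNA oligonucleotides, across increasing protein concentrations. Free RNA was separated by 8% native PAGE, excised, reverse-transcribed, PCR-barcoded and sequenced on an Illumina HiSeq 2500. Relative association constants came from read-count changes of each variant against the control reaction, normalised to the cognate motif.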

Question: Which binding signal does the source give for B1 here?
Answer: 0.0987 KA relative to UGCAUGU

Question: With B2 as the binder, how does the binding signal read?
Answer: 0.114 KA relative to UGCAUGU

Question: For B3, which binding signal is on record?
Answer: 0.103 KA relative to UGCAUGU

Question: B4 was tested. Which binding signal did it give?
Answer: 0.0788 KA relative to UGCAUGU

Question: How did the binding signal turn out when B5 was run?
Answer: 0.0639 KA relative to UGCAUGU

Question: With B6 as the binder, how does the binding signal read?
Answer: 0.091 KA relative to UGCAUGU

Question: How did the binding signal turn out when B7 was run?
Answer: 0.0661 KA relative to UGCAUGU

Question: For B8, which binding signal is on record?
Answer: 0.139 KA relative to UGCAUGU

Question: B9 was tested. Which binding signal did it give?
Answer: 0.0978 KA relative to UGCAUGU

Question: With B10 as the binder, how does the binding signal read?
Answer: 0.278 KA relative to UGCAUGU

Question: B11 was tested. Which binding signal did it give?
Answer: 0.1 KA relative to UGCAUGU

Question: For B12, which binding signal is on record?
Answer: 0.0936 KA relative to UGCAUGU

Question: For B13, which binding signal is on record?
Answer: 0.107 KA relative to UGCAUGU

Question: For B14, which binding signal is on record?
Answer: 0.0866 KA relative to UGCAUGU

Question: For B15, which binding signal is on record?
Answer: 0.13 KA relative to UGCAUGU

Question: With B16 as the binder, how does the binding signal read?
Answer: 0.0692 KA relative to UGCAUGU

Question: With B17 as the binder, how does the binding signal read?
Answer: 0.0693 KA relative to UGCAUGU

Question: For B18, which binding signal is on record?
Answer: 0.168 KA relative to UGCAUGU

Question: Which binding signal does the source give for B19 here?
Answer: 0.103 KA relative to UGCAUGU

Question: B20 was tested. Which binding signal did it give?
Answer: 0.114 KA relative to UGCAUGU

— paper PMC9911399, “Two distinct binding modes provide the RNA-binding protein RbFox with extraordinary sequence specificity”
